The whole screen tested about 46,000 compounds, of which about 60 (0.1%) were called active. Another 3% or so got no clear call; they are omitted. The call rests on the fitted dose curve; in most records, active means well fitted inhibition curve with a large enough effect; inconclusive means small, poorly fitted or top-dose-only effect; inactive means no such curve, though single readings can be large or run the other way. The list shows a part of the results.
Assay: Primary qHTS assay for Inhibitors of ovarian cancer metastasis using an organotypic tumor microenvironment (TME) model. Further: nearly all actives have a fitted effect of over 65% in size.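 On activity change, negative = inhibition: plate controls were DMSO wells for no effect and tomatine positive control wells for full effect.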
Conditions: SKOV3ip1-GFP adhesion/invasion on 3D omental model, fluorescence; series mostly up to 45.8 µM; activity change, negative = inhibition: at the top concentration
Method in brief: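 qHTS, 4-pt dose (0.36-46 umol/L); SKOV3ip1-GFP, 1,200 cells/well, no FBS; primary omental fibroblast/mesothelial co-culture 48 h pre-grown; 2 h RT + 16 h 37 C; PBS wash, 4% PFA; GFP count 488/509 nm.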

Structure (SMILES) | outcome | activity change, negative = inhibition
COc1ccccc1CNC(=O)C(=O)NCC(c1cccs1)S(=O)(=O)c1ccc(F)cc1 (stereo not drawn) | inactive | –
CC1=C(C(=O)OCC2CCCCC2)C(c2ccc(F)cc2F)CC(=O)N1 (stereo not drawn) | inactive | –
Cc1csc2nc(COC(=O)c3ccc(NC(=O)COc4ccccc4F)cc3)cc(=O)n12 | inactive | –
COc1ccc(NC(=O)Cn2c(SCc3cccc(Cl)c3)nc3ccncc32)c(OC)c1OC | inactive | –
CC1=C(C(=O)Nc2ccccc2)C(c2ccccc2)n2nc(-c3ccco3)nc2N1 (stereo not drawn) | inactive | –
CC(=O)Nc1nnc(SCc2cc(=O)c3cc(C)ccc3[nH]2)s1 | – | inactive: -9.28%
COc1cc(Cl)c(C)cc1NC(=O)CCc1nc2cccnc2n1-c1ccccc1 | – | inactive: 9.87%
Nc1ncn([C@@H]2O[C@H](CO)[C@@H](O)[C@@H]2O)c(=O)n1 | – | inactive: -1.9%
COc1ccc(-c2nnc(SCC(=O)Nc3cccc(F)c3)s2)cc1 | – | inactive: 3.43%
Cn1c(=O)cc(SCC(=O)NCc2ccc(F)cc2)c2ccc(Cl)cc21 | inactive | –
CCCCNC(=O)C1CCN(S(=O)(=O)c2cc(Br)cc3c2N(C(=O)CC)CC3)CC1 | – | inactive: -4.99%
CCn1cc(C(=O)O)c(=O)c2ccc(C)nc21 | – | inactive: -3.63%
CCOc1ccccc1NC(=O)CCn1c(-c2ccc(OC)cc2)cc(C(C)=O)c1C | inactive | –
CCOc1ccccc1NC(=O)C(C)Sc1cc(-c2ccccc2)nc(C)n1 (stereo not drawn) | inactive | –
Cc1ccc(NCc2cccn2-c2nnc(N3CCCCCC3)s2)cc1 | – | inactive: 46.2%
O=C(NCCCc1ccccc1)c1nn(-c2ccccc2F)nc1CO | – | inactive: -8.11%
Cc1nc(-c2ccc(C)c(N3CCN(C(=O)Nc4ccccc4C(F)(F)F)CC3)c2)no1 | inactive | –
O=C(NC(=O)c1cccc(F)c1)Nc1ccc(-c2cc(C(F)(F)F)nn2-c2ccccc2)cc1 | inactive | –
CC(=O)c1ccc(NC(=O)C2CCC(CNS(=O)(=O)c3ccc(Br)s3)CC2)cc1 (stereo not drawn) | – | inactive: 0.821%
O=C(NCCc1ccccc1)c1ccc(CSc2nc3cccnc3n2Cc2ccc(F)cc2)cc1 | – | inactive: -9.08%
COC(=O)c1ccc(NC(=O)C2(S(=O)(=O)c3ccc(C)cc3)CC2)cc1 | – | inactive: 1.14%

Structure (SMILES) | outcome | activity change, negative = inhibition
Cc1ccc(C(=O)Nc2nnc(S(=O)(=O)N3CCOCC3)s2)cc1 | inactive | –
Cc1ccc(CN2CCCn3nc(C(=O)NCCC(C)C)cc3C2=O)cc1 | – | inactive: 27.1%
O=C(NCc1ccc(F)cc1)C1CCN(C(=O)c2ccc(-n3ccc4ccccc43)s2)CC1 | inactive | –
COC(=O)c1sc(-c2ccccc2)cc1NC(=O)c1cccc(F)c1 | – | inactive: -6.04%
COc1ccccc1-n1cc(-c2ccc(C)cc2)nc1S(=O)(=O)CC(=O)Nc1ccccc1C(F)(F)F | – | inactive: -20%
COc1ccc(CNCCSc2nnnn2-c2ccccc2)cc1 | – | inactive: -2.19%
COc1ccc(CC(=O)Nc2ccc3nc(Nc4cccc(Cl)c4)cc(C)c3c2)cc1OC | – | inactive: -7.77%
Cc1ccc(S(=O)(=O)N2CCC(Oc3ccc(-n4cnnn4)cc3)CC2)cc1 | – | inactive: -5.85%
COc1ccccc1Nc1c2c(nc3ccc(NC(=O)/C=C/c4cccc(OC)c4OC)cc13)CCCC2 | – | inactive: -14.3%
COc1ccc2nc(N(Cc3cccnc3)C(=O)CCc3ccccc3)sc2c1 | – | inactive: -18.1%
COc1cc(OC)c(NC(c2nnc(-c3ccccc3)o2)c2ccc(F)cc2Cl)cc1Cl (stereo not drawn) | – | inactive: -5.55%
CCOc1ccccc1-c1nc(-c2ccc(-c3ccccc3)nc2OCC)no1 | – | inactive: -1.7%
COc1ccccc1NC(=O)CSc1nnc(-c2cccc(Cl)c2)o1 | – | inactive: 4.3%
CCn1cc(S(=O)(=O)c2cc(C)cc(C)c2)c(=O)c2cc(F)c(N3CCOCC3)cc21 | – | inactive: 1.94%
COc1ccc(CCNC(=O)c2ccc3c(c2)N(Cc2cccc(C)c2)C(=O)c2ccccc2S3(=O)=O)cc1OC | – | inactive: -2.83%
CCc1ccc(-n2nnc(-c3nc(-c4ccccc4)no3)c2C)cc1 | – | inactive: -4.4%
CCN(C(=O)Cn1c(C(=O)OC)cc2oc3ccccc3c21)c1cccc(C)c1 | – | inactive: 2.78%
Cc1ccc(CCNC(=O)CCc2cn(Cc3ccccc3C)c3ccccc23)cc1 | – | inactive: 9.8%
CCOC(=O)c1c(Oc2ccc(C(=O)OC)cc2)nnc(-c2ccccc2)c1-c1ccccc1 | – | inactive: -11.3%
Cc1ccc(C)c(N(C)C(=O)c2cn(C)c(=O)c3ccccc23)c1 | – | inactive: -1.26%
Cc1cc(C)cc(-n2cnc3cc(C(=O)NCCc4ccccc4)ccc32)c1 | – | inactive: -16.8%

Structure (SMILES) | outcome | activity change, negative = inhibition
Cc1cccc(Cn2c(SCc3ccc(C(=O)N4CCCCCC4)cc3)nc3ccncc32)c1 | inactive | –
COc1cc(CN(C(=O)c2cc3ccccc3oc2=O)C2CCS(=O)(=O)C2)cc(OC)c1OC (stereo not drawn) | – | inactive: 19.2%
Cc1cccc(NC(=O)c2cc(S(=O)(=O)N3CCCCC3)c[nH]2)c1C | inactive | –
Brc1csc(CN2CCc3nc(Nc4ccccc4)ncc3C2)c1 | – | inactive: 3.65%
O=C(CNC(=O)c1ccccc1Cl)OCc1cc(=O)n2ccsc2n1 | inactive | –
O=C(c1cccc(Cl)c1)n1nc(-c2ccco2)nc1NCc1cccs1 | – | inactive: -10.5%
Cc1ccc(Cn2c(=O)n(CCCCC(=O)NCCc3ccc(Cl)cc3)c(=O)c3ccccc32)cc1 | – | inactive: 19.4%
COc1ccc(S(=O)(=O)N2CCN(c3ccc(F)cc3)CC2)cc1-c1noc(C)n1 | – | inactive: -11.6%
CCc1nnc2c(Nc3ccc(Br)c(C)c3)nc3ccccc3n12 | – | inactive: 0.28%
O=C(NCc1ccccc1)c1cc(-c2cccc(Cl)c2)on1 | – | inactive: -1.01%
CC1CCc2c(sc3nnn(Cc4ccc(F)cc4)c(=O)c23)C1 (stereo not drawn) | – | inactive: 6.05%
Cn1c(=O)c2c(n3c4ccccc4nc13)NC(=O)CC2c1ccccc1F (stereo not drawn) | – | inactive: -9.16%
Cc1cc(C)cc(OCC(=O)NCC(c2ccc(Cl)cc2)N2CCCCC2)c1 (stereo not drawn) | – | inactive: -17.6%
COC(=O)c1ccc(NC(=O)CC2C(=O)N(c3ccc(Cl)cc3)C(=O)N2Cc2cccs2)cc1 (stereo not drawn) | – | inactive: 0.334%
COc1ccccc1CCNC(=O)c1ccc2c(c1)c(C)c(C)n2C | – | inactive: -9.58%
CCc1ccc(NCc2cc3cc4c(cc3n(CC(=O)Nc3ccc(Cl)cc3)c2=O)OCO4)cc1 | inactive | –
COc1ccc(NC(=O)CSc2ncc(-c3ccc(Cl)cc3)[nH]2)cc1OC | – | inactive: -2.24%
COc1ccc(OC)c(N(CC(=O)NCc2ccccc2)S(=O)(=O)c2ccccc2)c1 | – | inactive: 4.7%
CCN(CC)S(=O)(=O)c1ccc2c(c1)N(CC(=O)Nc1c(C)cccc1C)C(=O)CO2 | – | inactive: -4.6%
CCc1ccccc1NC(=O)Cn1nnc(C(=O)OC)c1C(=O)OC | – | inactive: 1.19%
CCOC(=O)c1sc(N2C(=O)c3oc4cc(C)c(C)cc4c(=O)c3C2c2cccc(O)c2)nc1C (stereo not drawn) | – | inactive: 24.6%

— PubChem BioAssay AID1963576 (National Center for Advancing Translational Sciences (NCATS), 2024)
